These are yes or no findings as the source states them, for the method shown. Some binding calls cover weakened binding; strength is not graded here. Values belong to the substance of their own block, whether it stands above or below them.
Key:
[1] = molecular target: XIAP-UBA (UBA domain of X-linked inhibitor of apoptosis protein, residues 365-423) (human) (UniProt P98170); experiment: intermolecular NOEs (isotope-filtered, edited 3D NOESY-HSQC); mixed sample of 1 mM 13C/15N-XIAP-UBA and 1 mM unlabelled XIAP-UBA in BisTris buffer; both purified
[2] = molecular target: XIAP-UBA (UBA domain of X-linked inhibitor of apoptosis protein, residues 365-423) (human) (UniProt P98170); experiment: cross-linking; XIAP-UBA wild type or mutant (1 mg/ml) with 500 µM BS3, 60 min, room temperature, 10 mM HEPES pH 7.5; SDS-PAGE, Coomassie; both purified
[3] = molecular target: XIAP-UBA (UBA domain of X-linked inhibitor of apoptosis protein, residues 365-423) (human) (UniProt P98170); experiment: NMR titration; dilution series of 15N-XIAP-UBA, 0.16 mM to 1.9 mM; changes of 1H-15N HSQC cross peak positions; 298 K; BisTris buffer pH 6.7; both purified
XIAP-UBA F371A (human) = XIAP-UBA F371A (human) (UniProt P98170); experiment: cross-linking; XIAP-UBA wild type or mutant (1 mg/ml) with 500 µM BS3, 60 min, room temperature, 10 mM HEPES pH 7.5; SDS-PAGE, Coomassie; both purified
XIAP-UBA T369A (human) = XIAP-UBA T369A (human) (UniProt P98170); experiment: as above
[4] = molecular target: XIAP-UBA Δ (369–372) (human) (UniProt P98170); experiment: as above

The chains behind the UniProt entries cited, without tags or fusion partners. Where a name states a change or a piece, a line headed by the entry shows the natural chain unless it says otherwise. A line that says so, or that is headed by a name, gives the form on record, which may keep a tag or linker. Residues count along the entry.
XIAP-UBA (UBA domain of X-linked inhibitor of apoptosis protein, residues 365-423) (P98170, residues 365-423): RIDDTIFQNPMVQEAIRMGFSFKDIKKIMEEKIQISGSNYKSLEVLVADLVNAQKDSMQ
XIAP-UBA F371A (P98170, form named): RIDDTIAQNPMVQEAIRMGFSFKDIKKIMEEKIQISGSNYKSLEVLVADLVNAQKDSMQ
XIAP-UBA T369A (P98170, form named): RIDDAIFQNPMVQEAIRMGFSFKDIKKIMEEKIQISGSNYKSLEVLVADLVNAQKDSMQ
XIAP-UBA Δ (369–372) (P98170, form named): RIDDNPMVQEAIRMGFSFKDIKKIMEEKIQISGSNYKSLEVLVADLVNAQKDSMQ

binding [2]: binds weakly | binding [3]: binds weakly
Substance: XIAP-UBA (UBA domain of X-linked inhibitor of apoptosis protein, residues 365-423) (from UniProt P98170 365-423) (domain or fragment)
binding [1]: binds weakly

binding (XIAP-UBA F371A (human)): binds weakly
Substance: XIAP-UBA F371A (from UniProt P98170 365-423) (domain or fragment)

binding (XIAP-UBA T369A (human)): binds weakly
Substance: XIAP-UBA T369A (from UniProt P98170 365-423) (domain or fragment)

binding [4]: no binding (tested: 1 mg/ml)
Substance: XIAP-UBA Δ (369–372) (from UniProt P98170 365-423) (domain or fragment)

Source: article PMC3240630
